# Some of the results follow.
# B1: XL-35 (Xenopus laevis) (protein)
# chain: MLVHILLLLVTGGLSQSCDPVVIVASKNMVKQLDCDKFRNCKEIKDSNEEAQDGIYTLTSPDGISYQTFCDMTTNGGGWTLVASVHENNMAGKCTIGDRWSSQQGNRADYPEGDGNWANYNTFGSAGGATSDDYKNPGYYDIEAYNLGVWHVPNKTPLSVWRNSSLQRYRTTDGILFKHGGNLFSLYRIYPVKYGIGSCSKDSGPTVPVVYDLGSANLTASFYSPGFRSQFTPGYIQFRPINTEKAALALCPGMKMESCNVEHVCIGGGGYFPEADPRQCGDFAAYDFNGYGTKKFNSAGIEITEAAVLLFYL
# What was measured:
# Experiment in all cases: glycan array binding signal (z-score within array); higher = stronger binding
# Conditions in all cases: glycan notation: IUPAC condensed, linker removed
# [1] = target: Neu5Ac(a2-3)Gal(b1-4)GlcNAc(b1-2)Man(a1-3)[Neu5Ac(a2-6)Gal(b1-4)GlcNAc(b1-2)Man(a1-6)]Man(b1-4)GlcNAc(b1-4)GlcNAc
# Method in brief: (§1)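 Columns mapping to the same glycan were averaged after glycan names were converted to IUPAC-condensed notation. The data come from 3228 arrays in the Consortium for Functional Glycomics database, limited to those with an available protein sequence. Binding is reported as a within-array Z-score averaged across arrays of one protein sequence and across linkers.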
# [2] = target: Neu5Ac(a2-3)Gal(b1-4)GlcNAc(b1-2)[Neu5Ac(a2-3)Gal(b1-4)GlcNAc(b1-4)]Man(a1-3)[GlcNAc(b1-4)][Neu5Ac(a2-3)Gal(b1-4)GlcNAc(b1-2)[Neu5Ac(a2-3)Gal(b1-4)GlcNAc(b1-6)]Man(a1-6)]Man(b1-4)GlcNAc(b1-4)GlcNAc
# Method in brief: as §1
# [3] = target: Neu5Ac(a2-3)Gal(b1-4)GlcNAc(b1-2)[Neu5Ac(a2-3)Gal(b1-4)GlcNAc(b1-4)]Man(a1-3)[GlcNAc(b1-4)][Neu5Ac(a2-3)Gal(b1-4)GlcNAc(b1-4)Man(a1-6)]Man(b1-4)GlcNAc(b1-4)GlcNAc
# Method in brief: as §1
# [4] = target: Neu5Ac(a2-3)Gal(b1-4)GlcNAc(b1-2)[Neu5Ac(a2-3)Gal(b1-4)GlcNAc(b1-6)]Man(a1-6)[Neu5Ac(a2-3)Gal(b1-4)GlcNAc(b1-2)Man(a1-3)]Man(b1-4)GlcNAc(b1-4)GlcNAc
# Method in brief: as §1
# [5] = target: Neu5Ac(a2-3)Gal(b1-4)GlcNAc(b1-2)[Neu5Ac(a2-3)Gal(b1-4)GlcNAc(b1-6)]Man(a1-6)[Neu5Ac(a2-3)Gal(b1-4)GlcNAc(b1-2)Man(a1-3)][GlcNAc(b1-4)]Man(b1-4)GlcNAc(b1-4)GlcNAc
# Method in brief: as §1
# [6] = target: Neu5Ac(a2-3)Gal(b1-4)GlcNAc(b1-3)Gal
# Method in brief: as §1
# [7] = target: Neu5Ac(a2-3)Gal(b1-4)GlcNAc(b1-3)Gal(b1-3)GlcNAc
# Method in brief: as §1
# [8] = target: Neu5Ac(a2-3)Gal(b1-4)GlcNAc(b1-3)Gal(b1-4)GlcNAc
# Method in brief: as §1
# [9] = target: Neu5Ac(a2-3)Gal(b1-4)GlcNAc(b1-3)Gal(b1-4)GlcNAc(b1-2)Man(a1-3)[Neu5Ac(a2-3)Gal(b1-4)GlcNAc(b1-3)Gal(b1-4)GlcNAc(b1-2)Man(a1-6)]Man(b1-4)GlcNAc(b1-4)GlcNAc
# Method in brief: as §1
# [10] = target: Neu5Ac(a2-3)Gal(b1-4)GlcNAc(b1-3)Gal(b1-4)GlcNAc(b1-3)Gal(b1-4)GlcNAc
# Method in brief: as §1
# [11] = target: Neu5Ac(a2-3)Gal(b1-4)GlcNAc(b1-3)Gal(b1-4)GlcNAc(b1-3)Gal(b1-4)GlcNAc(b1-2)Man(a1-3)[Neu5Ac(a2-3)Gal(b1-4)GlcNAc(b1-3)Gal(b1-4)GlcNAc(b1-3)Gal(b1-4)GlcNAc(b1-2)Man(a1-6)]GalNAc
# Method in brief: as §1
# [12] = target: Neu5Ac(a2-3)Gal(b1-4)GlcNAc(b1-3)Gal(b1-4)GlcNAc(b1-3)GalNAc
# Method in brief: as §1
# [13] = target: Neu5Ac(a2-3)Gal(b1-4)GlcNAc(b1-3)Gal(b1-4)GlcNAc(b1-3)[Neu5Ac(a2-3)Gal(b1-4)GlcNAc(b1-3)Gal(b1-4)GlcNAc(b1-6)]GalNAc
# Method in brief: as §1
# [14] = target: Neu5Ac(a2-3)Gal(b1-4)GlcNAc(b1-3)Gal(b1-4)GlcNAc(b1-6)[Gal(b1-3)]GalNAc
# Method in brief: as §1
# [15] = target: Neu5Ac(a2-3)Gal(b1-4)GlcNAc(b1-3)Gal(b1-4)[Fuc(a1-3)]GlcNAc
# Method in brief: as §1
# [16] = target: Neu5Ac(a2-3)Gal(b1-4)GlcNAc(b1-3)GalNAc
# Method in brief: as §1
# [17] = target: Neu5Ac(a2-3)Gal(b1-4)GlcNAc(b1-3)[Neu5Ac(a2-3)Gal(b1-4)GlcNAc(b1-6)]GalNAc
# Method in brief: as §1
# [18] = target: Neu5Ac(a2-3)Gal(b1-4)GlcNAc(b1-6)GalNAc
# Method in brief: as §1
# [19] = target: Neu5Ac(a2-3)Gal(b1-4)GlcNAc(b1-6)[Gal(b1-3)]GalNAc
# Method in brief: as §1
# [20] = target: Neu5Ac(a2-3)Gal(b1-4)GlcNAc(b1-6)[Neu5Ac(a2-3)Gal(b1-3)]GalNAc
# Method in brief: as §1
# [21] = target: Neu5Ac(a2-3)Gal(b1-4)GlcNAc6S
# Method in brief: as §1
# [22] = target: Neu5Ac(a2-3)Gal(b1-4)[Fuc(a1-3)]GlcNAc
# Method in brief: as §1
# [23] = target: Neu5Ac(a2-3)Gal(b1-4)[Fuc(a1-3)]GlcNAc(b1-2)Man
# Method in brief: as §1
# [24] = target: Neu5Ac(a2-3)Gal(b1-4)[Fuc(a1-3)]GlcNAc(b1-3)Gal
# Method in brief: as §1
# [25] = target: Neu5Ac(a2-3)Gal(b1-4)[Fuc(a1-3)]GlcNAc(b1-3)Gal(b1-4)GlcNAc
# Method in brief: as §1
# [26] = target: Neu5Ac(a2-3)Gal(b1-4)[Fuc(a1-3)]GlcNAc(b1-3)Gal(b1-4)[Fuc(a1-3)]GlcNAc(b1-3)Gal(b1-4)[Fuc(a1-3)]GlcNAc
# Method in brief: as §1
# [27] = target: Neu5Ac(a2-3)Gal(b1-4)[Fuc(a1-3)]GlcNAc(b1-3)GalNAc
# Method in brief: as §1
# [28] = target: Neu5Ac(a2-3)Gal(b1-4)[Fuc(a1-3)]GlcNAc(b1-6)[Gal(b1-3)]GalNAc
# Method in brief: as §1
# [29] = target: Neu5Ac(a2-3)Gal(b1-4)[Fuc(a1-3)]GlcNAc(b1-6)[Neu5Ac(a2-3)Gal(b1-3)]GalNAc
# Method in brief: as §1
# [30] = target: Neu5Ac(a2-3)Gal(b1-4)[Fuc(a1-3)]GlcNAc6S
# Method in brief: as §1
# [31] = target: Neu5Ac(a2-3)Gal6S(b1-4)GlcNAc
# Method in brief: as §1
# [32] = target: Neu5Ac(a2-3)Gal6S(b1-4)[Fuc(a1-3)]GlcNAc
# Method in brief: as §1
# [33] = target: Neu5Ac(a2-3)GalNAc
# Method in brief: as §1
# [34] = target: Neu5Ac(a2-3)GalNAc(b1-4)GlcNAc
# Method in brief: as §1
# [35] = target: Neu5Ac(a2-3)[GalNAc(b1-4)]Gal(b1-4)Glc
# Method in brief: as §1
# [36] = target: Neu5Ac(a2-3)[GalNAc(b1-4)]Gal(b1-4)GlcNAc
# Method in brief: as §1
# [37] = target: Neu5Ac(a2-3)[GalNAc(b1-4)]Gal(b1-4)GlcNAc(b1-3)GalNAc
# Method in brief: as §1
binder,measurement,setting,value
B1,glycan array binding signal (z-score),[1],-0.253
same,glycan array binding signal (z-score),[2],0.015
same,glycan array binding signal (z-score),[3],-0.229
same,glycan array binding signal (z-score),[4],0.329
same,glycan array binding signal (z-score),[5],-0.09
same,glycan array binding signal (z-score),[6],-0.283
same,glycan array binding signal (z-score),[7],0.002
same,glycan array binding signal (z-score),[8],-0.116
same,glycan array binding signal (z-score),[9],0.064
same,glycan array binding signal (z-score),[10],-0.178
same,glycan array binding signal (z-score),[11],0.335
same,glycan array binding signal (z-score),[12],0.012
same,glycan array binding signal (z-score),[13],-0.256
same,glycan array binding signal (z-score),[14],-0.307
same,glycan array binding signal (z-score),[15],0.152
same,glycan array binding signal (z-score),[16],-0.1
same,glycan array binding signal (z-score),[17],-0.25
same,glycan array binding signal (z-score),[18],-0.331
same,glycan array binding signal (z-score),[19],-0.287
same,glycan array binding signal (z-score),[20],-0.518
same,glycan array binding signal (z-score),[21],0.039
same,glycan array binding signal (z-score),[22],-0.21
same,glycan array binding signal (z-score),[23],0.447
same,glycan array binding signal (z-score),[24],-0.202
same,glycan array binding signal (z-score),[25],0.191
same,glycan array binding signal (z-score),[26],-0.116
same,glycan array binding signal (z-score),[27],0.775
same,glycan array binding signal (z-score),[28],-0.043
same,glycan array binding signal (z-score),[29],-0.067
same,glycan array binding signal (z-score),[30],-0.136
same,glycan array binding signal (z-score),[31],0.029
same,glycan array binding signal (z-score),[32],-0.241
same,glycan array binding signal (z-score),[33],-0.256
same,glycan array binding signal (z-score),[34],-0.304
same,glycan array binding signal (z-score),[35],-0.177
same,glycan array binding signal (z-score),[36],-0.116
same,glycan array binding signal (z-score),[37],-0.374

# From the supplement of paper PMC8728848
